The values that follow come from publication PMC12231567.

By UniProt entry, the sequences of proteins in these tests, tags left out.
UniProt Q94AH6: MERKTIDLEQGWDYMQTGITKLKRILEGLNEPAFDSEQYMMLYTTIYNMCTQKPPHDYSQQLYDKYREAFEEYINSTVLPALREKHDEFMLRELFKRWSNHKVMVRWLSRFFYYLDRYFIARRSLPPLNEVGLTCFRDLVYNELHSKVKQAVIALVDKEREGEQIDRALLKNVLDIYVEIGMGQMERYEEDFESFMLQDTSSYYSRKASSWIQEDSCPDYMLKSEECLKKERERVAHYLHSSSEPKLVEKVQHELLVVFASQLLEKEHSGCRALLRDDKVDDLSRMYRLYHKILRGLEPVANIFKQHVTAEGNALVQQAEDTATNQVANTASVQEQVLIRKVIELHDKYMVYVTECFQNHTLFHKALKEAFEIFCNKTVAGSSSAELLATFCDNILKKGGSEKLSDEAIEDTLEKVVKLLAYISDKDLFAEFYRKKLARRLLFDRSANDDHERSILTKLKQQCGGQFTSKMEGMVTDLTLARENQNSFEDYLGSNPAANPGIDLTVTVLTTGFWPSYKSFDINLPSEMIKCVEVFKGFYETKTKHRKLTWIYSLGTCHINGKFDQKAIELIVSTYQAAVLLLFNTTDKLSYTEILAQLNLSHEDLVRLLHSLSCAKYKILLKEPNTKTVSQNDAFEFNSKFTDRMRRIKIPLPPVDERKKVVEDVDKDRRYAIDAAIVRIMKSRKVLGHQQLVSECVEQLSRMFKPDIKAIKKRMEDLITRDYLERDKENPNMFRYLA

Experiment [1] has as its target T1, αKNL2-C (C-terminal fragment of αKNL2, 364 to 599 aa) fused to the GAL4 DNA-binding domain (Arabidopsis thaliana) (UniProt F4KCE9).
T1 sequence: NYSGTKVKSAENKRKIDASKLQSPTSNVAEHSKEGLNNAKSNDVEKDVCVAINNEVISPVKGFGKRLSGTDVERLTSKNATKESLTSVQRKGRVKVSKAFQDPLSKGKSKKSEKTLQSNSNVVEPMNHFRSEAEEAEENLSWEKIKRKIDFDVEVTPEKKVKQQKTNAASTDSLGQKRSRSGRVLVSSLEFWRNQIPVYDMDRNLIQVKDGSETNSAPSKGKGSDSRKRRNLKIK
Nature of the experiment: two-hybrid; cotransformation of pGBKT7 (BD, bait) and pGADT7 (AD, prey) into S. cerevisiae Y2H Gold; drop dilutions on -LT and -LTH (triple dropout) medium, 30 °C.

In experiment [2] the target is T2, αKNL2 (KINETOCHORE NULL2), full length, fused to the GAL4 DNA-binding domain (Arabidopsis thaliana) (UniProt F4KCE9).
T2 sequence: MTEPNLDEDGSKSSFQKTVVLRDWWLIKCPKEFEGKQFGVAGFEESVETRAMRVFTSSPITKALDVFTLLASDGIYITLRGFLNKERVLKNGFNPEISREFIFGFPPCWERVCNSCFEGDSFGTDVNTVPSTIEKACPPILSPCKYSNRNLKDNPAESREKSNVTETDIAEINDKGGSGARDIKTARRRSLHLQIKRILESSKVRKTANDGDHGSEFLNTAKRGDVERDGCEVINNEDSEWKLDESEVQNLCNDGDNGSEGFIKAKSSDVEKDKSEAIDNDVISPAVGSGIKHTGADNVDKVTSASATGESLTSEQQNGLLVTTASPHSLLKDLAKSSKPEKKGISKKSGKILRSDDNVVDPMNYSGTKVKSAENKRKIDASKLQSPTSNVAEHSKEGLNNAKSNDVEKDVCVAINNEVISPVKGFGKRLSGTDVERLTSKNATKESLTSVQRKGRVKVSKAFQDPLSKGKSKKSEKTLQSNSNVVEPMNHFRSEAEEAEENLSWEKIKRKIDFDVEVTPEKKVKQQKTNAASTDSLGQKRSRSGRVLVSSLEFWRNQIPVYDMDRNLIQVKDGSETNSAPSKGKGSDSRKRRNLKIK
The experiment is described as above.

Experiment [3] has as its target T3, CDC20.1 fused to a Venus fragment and HA (BiFC and Co-IP) (Arabidopsis thaliana) (UniProt Q9SZA4).
T3 sequence: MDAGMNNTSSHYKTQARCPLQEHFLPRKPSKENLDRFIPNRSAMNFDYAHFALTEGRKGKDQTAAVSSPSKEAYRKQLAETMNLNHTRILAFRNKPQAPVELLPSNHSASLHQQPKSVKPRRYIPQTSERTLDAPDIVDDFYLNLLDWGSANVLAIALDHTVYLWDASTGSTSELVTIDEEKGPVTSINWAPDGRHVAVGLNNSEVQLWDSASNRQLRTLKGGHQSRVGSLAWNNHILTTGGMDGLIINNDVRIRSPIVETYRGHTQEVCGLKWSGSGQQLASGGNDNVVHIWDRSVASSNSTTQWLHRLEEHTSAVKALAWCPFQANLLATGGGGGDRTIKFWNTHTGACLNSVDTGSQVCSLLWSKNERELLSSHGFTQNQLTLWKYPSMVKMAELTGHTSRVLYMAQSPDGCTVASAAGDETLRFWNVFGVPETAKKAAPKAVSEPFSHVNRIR
Briefly: split reporter; BiFC in N. benthamiana leaves co-infiltrated with A. tumefaciens GV3101 carrying the VENn and VENc fusions (both directions) and HC-Pro; Venus fluorescence in nuclei; some combinations also scored after MG115.

In experiment [4] the target is T4, APC2 fused to a Venus fragment (BiFC) (Arabidopsis thaliana) (UniProt Q8H1U5).
T4 sequence: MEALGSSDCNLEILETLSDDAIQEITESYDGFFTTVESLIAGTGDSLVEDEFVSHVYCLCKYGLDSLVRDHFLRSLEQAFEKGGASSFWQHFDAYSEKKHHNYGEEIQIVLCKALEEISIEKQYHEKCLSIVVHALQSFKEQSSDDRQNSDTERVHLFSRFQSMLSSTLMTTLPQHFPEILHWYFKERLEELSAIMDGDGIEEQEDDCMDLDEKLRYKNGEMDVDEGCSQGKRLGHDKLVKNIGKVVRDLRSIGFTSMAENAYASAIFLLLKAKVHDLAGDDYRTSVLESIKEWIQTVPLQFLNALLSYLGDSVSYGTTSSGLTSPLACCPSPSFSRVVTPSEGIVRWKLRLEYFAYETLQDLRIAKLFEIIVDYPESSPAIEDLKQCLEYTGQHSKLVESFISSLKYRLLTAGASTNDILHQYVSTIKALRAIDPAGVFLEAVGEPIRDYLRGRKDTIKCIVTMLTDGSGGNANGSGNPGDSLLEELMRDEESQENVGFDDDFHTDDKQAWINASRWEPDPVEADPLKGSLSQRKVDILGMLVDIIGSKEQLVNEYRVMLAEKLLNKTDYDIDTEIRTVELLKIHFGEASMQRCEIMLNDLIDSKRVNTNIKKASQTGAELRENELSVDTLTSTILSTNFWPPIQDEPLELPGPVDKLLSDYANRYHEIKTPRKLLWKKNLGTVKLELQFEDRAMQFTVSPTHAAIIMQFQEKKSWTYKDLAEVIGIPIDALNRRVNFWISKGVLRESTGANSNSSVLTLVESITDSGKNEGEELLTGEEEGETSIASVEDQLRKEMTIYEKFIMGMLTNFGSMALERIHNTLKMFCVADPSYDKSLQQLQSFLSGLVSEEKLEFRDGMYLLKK
The experiment is described as above.

For experiment [5], the target named is T5, APC10 fused to a Venus fragment and HA (BiFC and Co-IP) (Arabidopsis thaliana) (UniProt Q9ZPW2).
T5 sequence: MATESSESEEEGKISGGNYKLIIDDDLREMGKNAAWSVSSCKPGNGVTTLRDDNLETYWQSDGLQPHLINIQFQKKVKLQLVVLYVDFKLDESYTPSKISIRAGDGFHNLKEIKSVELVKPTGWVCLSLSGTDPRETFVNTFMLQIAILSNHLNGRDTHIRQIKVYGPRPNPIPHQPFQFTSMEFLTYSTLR
The description is as above.

No constants are given. Whether binding was seen depends on the method and setting. For part of these data: In cells and extracts the contact can be indirect. Some binding calls cover weakened binding; strength is not graded here. Sequences can lack the tags named with a protein.

As to “CUL1 fused to the GAL4 activation domain (from UniProt Q94AH6 1-738)”, the binding result in experiment [1] and in experiment [2] was “no binding” in each case.

B1: APC10 (Anaphase-Promoting Complex subunit 10) fused to the GAL4 activation domain (protein, UniProt Q9ZPW2 1-192)
chain: MATESSESEEEGKISGGNYKLIIDDDLREMGKNAAWSVSSCKPGNGVTTLRDDNLETYWQSDGLQPHLINIQFQKKVKLQLVVLYVDFKLDESYTPSKISIRAGDGFHNLKEIKSVELVKPTGWVCLSLSGTDPRETFVNTFMLQIAILSNHLNGRDTHIRQIKVYGPRPNPIPHQPFQFTSMEFLTYSTLR
In the case of B1, the binding entry in experiment [1] is “binds”.

B2: UBC20 fused to the GAL4 activation domain (enzyme, UniProt Q8L7T3 1-180)
chain: MAAVNGYQGNTPADPPASNGSKQPAAPTKTVDSQSVLKRLQSELMGLMMGGGPGISAFPEEDNIFCWKGTITGSKDTVFEGTEYRLSLSFSNDYPFKPPKVKFETCCFHPNVDVYGNICLDILQDKWSSAYDVRTILLSIQSLLGEPNISSPLNTQAAQLWSNQEEYRKMVEKLYKPPSA
In the case of B2, the binding result in experiment [1] was “no binding”.

B3: UBC19 fused to the GAL4 activation domain (enzyme, UniProt Q9LJZ5 1-181)
chain: MATVNGYTGNTPAATTPAATGSKQSAPPTKTVDSHSVLKRLQSELMGLMMGADPGISAFPEEDNIFCWKGTITGSKDTVFEGTEYRLSLTFSNDYPFKSPKVKFETCCFHPNVDLYGNICLDILQDKWSSAYDVRTILLSIQSLLGEPNISSPLNNQAAQLWSNQEEYRKMVEKLYKPLNA
For B3, the binding result in experiment [1] is “no binding”.

B4: αKNL2^ΔD-box1-VENn (protein, UniProt F4KCE9)
chain: MTEPNLDEDGSKSSFQKTVVLRDWWLIKCPKEFEGKQFGVAGFEESVETRAMRVFTSSPITKALDVFTLLASDGIYITLNKERVLKNGFNPEISREFIFGFPPCWERVCNSCFEGDSFGTDVNTVPSTIEKACPPILSPCKYSNRNLKDNPAESREKSNVTETDIAEINDKGGSGARDIKTARRRSLHLQIKRILESSKVRKTANDGDHGSEFLNTAKRGDVERDGCEVINNEDSEWKLDESEVQNLCNDGDNGSEGFIKAKSSDVEKDKSEAIDNDVISPAVGSGIKHTGADNVDKVTSASATGESLTSEQQNGLLVTTASPHSLLKDLAKSSKPEKKGISKKSGKILRSDDNVVDPMNYSGTKVKSAENKRKIDASKLQSPTSNVAEHSKEGLNNAKSNDVEKDVCVAINNEVISPVKGFGKRLSGTDVERLTSKNATKESLTSVQRKGRVKVSKAFQDPLSKGKSKKSEKTLQSNSNVVEPMNHFRSEAEEAEENLSWEKIKRKIDFDVEVTPEKKVKQQKTNAASTDSLGQKRSRSGRVLVSSLEFWRNQIPVYDMDRNLIQVKDGSETNSAPSKGKGSDSRKRRNLKIK
For B4, the binding entry in experiment [3] is on record as “no binding”.

B5: αKNL2-N (1 to 363 aa) fused to a Venus fragment (BiFC) (domain or fragment, UniProt F4KCE9 1-363)
chain: MTEPNLDEDGSKSSFQKTVVLRDWWLIKCPKEFEGKQFGVAGFEESVETRAMRVFTSSPITKALDVFTLLASDGIYITLRGFLNKERVLKNGFNPEISREFIFGFPPCWERVCNSCFEGDSFGTDVNTVPSTIEKACPPILSPCKYSNRNLKDNPAESREKSNVTETDIAEINDKGGSGARDIKTARRRSLHLQIKRILESSKVRKTANDGDHGSEFLNTAKRGDVERDGCEVINNEDSEWKLDESEVQNLCNDGDNGSEGFIKAKSSDVEKDKSEAIDNDVISPAVGSGIKHTGADNVDKVTSASATGESLTSEQQNGLLVTTASPHSLLKDLAKSSKPEKKGISKKSGKILRSDDNVVDPM
For the molecule B5, the binding result in experiment [4], in experiment [3] and in experiment [5] was “binds” throughout.

B6: CUL3 fused to the GAL4 activation domain (protein, UniProt Q9ZVH4 1-732)
chain: MSNQKKRNFQIEAFKHRVVVDPKYADKTWQILERAIHQIYNQDASGLSFEELYRNAYNMVLHKFGEKLYTGFIATMTSHLKEKSKLIEAAQGGSFLEELNKKWNEHNKALEMIRDILMYMDRTYIESTKKTHVHPMGLNLWRDNVVHFTKIHTRLLNTLLDLVQKERIGEVIDRGLMRNVIKMFMDLGESVYQEDFEKPFLDASSEFYKVESQEFIESCDCGDYLKKSEKRLTEEIERVAHYLDAKSEEKITSVVEKEMIANHMQRLVHMENSGLVNMLLNDKYEDLGRMYNLFRRVTNGLVTVRDVMTSHLREMGKQLVTDPEKSKDPVEFVQRLLDERDKYDKIINTAFGNDKTFQNALNSSFEYFINLNARSPEFISLFVDDKLRKGLKGITDVDVEVILDKVMMLFRYLQEKDVFEKYYKQHLAKRLLSGKTVSDDAERSLIVKLKTECGYQFTSKLEGMFTDMKTSEDTMRGFYGSHPELSEGPTLIVQVLTTGSWPTQPAVPCNLPAEVSVLCEKFRSYYLGTHTGRRLSWQTNMGTADIKAIFGKGQKHELNVSTFQMCVLMLFNNSDRLSYKEIEQATEIPAADLKRCLQSLACVKGKNVIKKEPMSKDIGEEDLFVVNDKFTSKFYKVKIGTVVAQKETEPEKQETRQRVEEDRKPQIEAAIVRIMKSRKILDHNNIIAEVTKQLQPRFLANPTEIKKRIESLIERDFLERDSTDRKLYRYLA
B6: the binding result in experiment [1] and in experiment [2] was “no binding” each time.

B7: αKNL2^ΔD-box2-VENn (protein, UniProt F4KCE9)
chain: MTEPNLDEDGSKSSFQKTVVLRDWWLIKCPKEFEGKQFGVAGFEESVETRAMRVFTSSPITKALDVFTLLASDGIYITLRGFLNKERVLKNGFNPEISREFIFGFPPCWERVCNSCFEGDSFGTDVNTVPSTIEKACPPILSPCKYSNRNLKDNPAESREKSNVTETDIAEINDKGGSGARDIKTARHLQIKRILESSKVRKTANDGDHGSEFLNTAKRGDVERDGCEVINNEDSEWKLDESEVQNLCNDGDNGSEGFIKAKSSDVEKDKSEAIDNDVISPAVGSGIKHTGADNVDKVTSASATGESLTSEQQNGLLVTTASPHSLLKDLAKSSKPEKKGISKKSGKILRSDDNVVDPMNYSGTKVKSAENKRKIDASKLQSPTSNVAEHSKEGLNNAKSNDVEKDVCVAINNEVISPVKGFGKRLSGTDVERLTSKNATKESLTSVQRKGRVKVSKAFQDPLSKGKSKKSEKTLQSNSNVVEPMNHFRSEAEEAEENLSWEKIKRKIDFDVEVTPEKKVKQQKTNAASTDSLGQKRSRSGRVLVSSLEFWRNQIPVYDMDRNLIQVKDGSETNSAPSKGKGSDSRKRRNLKIK
On to B7, for which, in experiment [3], the binding entry is “binds”.
